± gives the uncertainty stated by the source. The sequences are guide strands of siRNAs; only the seed at positions 2 to 7 varies.
Key:
[1] = test system: HeyA8; experiment: cell viability relative to lipid-only control; higher = less toxic; conditions: concentration: 10 nM; 96 h; Homo sapiens
[2] = test system: M565; experiment: as above; conditions: concentration: 10 nM; 96 h; Mus musculus
[3] = test system: H460; experiment: as above; conditions: concentration: 10 nM; 96 h; Homo sapiens
[4] = test system: 3LL; experiment: cell viability relative to siNT1 control; HeyA8 human ovarian and H460 human lung cancer; M565 mouse liver and 3LL mouse lung cancer; siNT1 is a non-toxic control siRNA; higher = less toxic; conditions: concentration: 10 nM; 96 h; Mus musculus;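 note: Luminescence-based viability of cells reverse transfected in 384-well plates with lipid-complexed siRNAs built on a non-toxic 19mer backbone whose passenger strand carries 2′-O-methyl groups at positions 1 and 2, triplicates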
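Throughout, for cell viability relative to lipid-only control: reverse lipid transfection in 384-well plates, in triplicate, of duplexes on a non-toxic 19mer backbone with passenger strand 2′-O-methylated at positions 1 and 2, luminescence viability read-out.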

Row | Sequence | cell viability [1] | cell viability [2] | cell viability [3] | cell viability [4]
1 | UGUUCUAACAUGUAAACCAAA | 86.6 ± 5.5% | 36.2 ± 4.7% | 61.8 ± 4.8% | 96.4 ± 6.4%
2 | UGAGCGAACAUGUAAACCAAA | 74.5 ± 1% | 34.1 ± 4.6% | 71.3 ± 9.4% | 86.4 ± 11%
3 | UGUCGAGACAUGUAAACCAAA | 85.9 ± 5.7% | 56.9 ± 8.7% | 62.6 ± 8.7% | 89.8 ± 18%
4 | UGUGACGACAUGUAAACCAAA | 73.7 ± 5% | 48.7 ± 8.7% | 45.4 ± 1.5% | 79.3 ± 8.2%
5 | UAGACUUACAUGUAAACCAAA | 76 ± 3.3% | 69.6 ± 10% | 68.8 ± 9.4% | 80 ± 4%
6 | UACUUUGACAUGUAAACCAAA | 73.1 ± 7.5% | 100 ± 5.4% | 62.7 ± 5.2% | 90.3 ± 10%
7 | UGUAUGCACAUGUAAACCAAA | 10.4 ± 1.2% | 10.5 ± 2.5% | 25.4 ± 1.8% | 56.9 ± 9.9%
8 | UCGCAUGACAUGUAAACCAAA | 84.3 ± 8.7% | 66.1 ± 3.4% | 62.2 ± 5.5% | 101 ± 19%
9 | UGUUUGUACAUGUAAACCAAA | 40.1 ± 4.2% | 83.7 ± 8.5% | 56.7 ± 5.4% | 34.7 ± 12%
10 | UACGGGUACAUGUAAACCAAA | 70.5 ± 14% | 24.6 ± 2.3% | 71.1 ± 7.2% | 34.4 ± 8%
11 | UAGCUGCACAUGUAAACCAAA | 7.09 ± 1.3% | 6.59 ± 1.2% | 37.7 ± 6.8% | 9.97 ± 2.4%
12 | UCCCCACACAUGUAAACCAAA | 83.3 ± 2.5% | 46.2 ± 7.9% | 73.3 ± 8.9% | 91.8 ± 30%
13 | UUCCUUCACAUGUAAACCAAA | 23.7 ± 6.7% | 62.3 ± 5.5% | 47.4 ± 3.1% | 56 ± 15%
14 | UCGAUGUACAUGUAAACCAAA | 60 ± 2.1% | 54.7 ± 7.4% | 72.1 ± 7.1% | 82.1 ± 17%
15 | UAGGCGAACAUGUAAACCAAA | 71.2 ± 8.1% | 26.9 ± 2.6% | 77.6 ± 19% | 89.4 ± 14%
16 | UACUGCUACAUGUAAACCAAA | 26.5 ± 3.7% | 28.4 ± 6.2% | 54.7 ± 5.8% | 41.9 ± 5.5%
17 | UCCUCUCACAUGUAAACCAAA | 73.8 ± 4.8% | 58.9 ± 2.8% | 41.4 ± 7.6% | 63.1 ± 10%
18 | UCACUUGACAUGUAAACCAAA | 76.6 ± 4.8% | 55.2 ± 10% | 42.3 ± 5.8% | 92.7 ± 11%
19 | UCUGACUACAUGUAAACCAAA | 83 ± 4.2% | 35.6 ± 7.6% | 43 ± 6% | 94.2 ± 16%
20 | UCGUCCAACAUGUAAACCAAA | 33.5 ± 3.2% | 48.1 ± 12% | 65 ± 4.1% | 59.1 ± 11%
21 | UCUACCAACAUGUAAACCAAA | 86.2 ± 6% | 67.5 ± 6.2% | 55.2 ± 4% | 93.8 ± 14%
22 | UUGCGUCACAUGUAAACCAAA | 93.5 ± 5% | 46.8 ± 5.4% | 98.9 ± 9.8% | 63.5 ± 3.7%

Row | Sequence | cell viability [1] | cell viability [2] | cell viability [3] | cell viability [4]
23 | UGAGAGAACAUGUAAACCAAA | 87.9 ± 1.7% | 15.6 ± 4.5% | 68.3 ± 9.2% | 84.1 ± 15%
24 | UGAAUCUACAUGUAAACCAAA | 61.01 ± 0.47% | 44.2 ± 3.3% | 69.4 ± 8.7% | 73 ± 18%
25 | UACUAGCACAUGUAAACCAAA | 17.3 ± 1.7% | 19.3 ± 4.3% | 29.3 ± 3.5% | 11.6 ± 2.3%
26 | UCGACCUACAUGUAAACCAAA | 80.4 ± 2.9% | 55.7 ± 6.1% | 66.8 ± 2.6% | 80 ± 14%
27 | UACGAACACAUGUAAACCAAA | 70.1 ± 4.2% | 62.2 ± 4.1% | 76.2 ± 4.5% | 90.1 ± 11%
28 | UCGGUUAACAUGUAAACCAAA | 92.2 ± 5.7% | 73.1 ± 4.6% | 66 ± 3.4% | 93.7 ± 22%
29 | UCGUAUGACAUGUAAACCAAA | 87.8 ± 5.8% | 63.1 ± 7.7% | 76.5 ± 7.7% | 90.6 ± 12%
30 | UGUUUGCACAUGUAAACCAAA | 37.7 ± 4.3% | 62.2 ± 1.5% | 65.3 ± 7.7% | 83 ± 11%
31 | UCACUUUACAUGUAAACCAAA | 64.8 ± 5.8% | 88.5 ± 1.6% | 37.3 ± 5.7% | 97.6 ± 17%
32 | UCCCUUGACAUGUAAACCAAA | 75.5 ± 9.1% | 68.2 ± 10% | 43 ± 2.8% | 104 ± 12%
33 | UCGCGCGACAUGUAAACCAAA | 68.5 ± 2.1% | 63.8 ± 10% | 74.8 ± 17% | 97.9 ± 15%
34 | UACUCCUACAUGUAAACCAAA | 26.4 ± 1.4% | 7.14 ± 1.8% | 22 ± 2.4% | 11.1 ± 1.3%
35 | UAGGUAGACAUGUAAACCAAA | 68.5 ± 3.5% | 32.7 ± 1.2% | 62.9 ± 17% | 71.3 ± 7%
36 | UGGCACGACAUGUAAACCAAA | 52.9 ± 4.1% | 24.8 ± 3.8% | 35.9 ± 1.3% | 42 ± 5.5%
37 | UUCAAAAACAUGUAAACCAAA | 100 ± 14% | 93.9 ± 12% | 81.3 ± 8.8% | 110 ± 19%
38 | UACCUUCACAUGUAAACCAAA | 38.1 ± 1.6% | 40.7 ± 1.5% | 55.1 ± 8.5% | 48.8 ± 9.4%
39 | UGAAGAUACAUGUAAACCAAA | 1.8 ± 0.051% | 9.19 ± 0.48% | 30.2 ± 1.4% | 67.7 ± 3.2%
40 | UAACUGCACAUGUAAACCAAA | 11.9 ± 2.1% | 8.56 ± 0.92% | 48.1 ± 8.8% | 11.3 ± 1.9%
41 | UCGACAGACAUGUAAACCAAA | 93.1 ± 8.4% | 61.8 ± 9.1% | 69.8 ± 8.2% | 90.3 ± 17%
42 | UGAGGUCACAUGUAAACCAAA | 27.2 ± 2.4% | 4.84 ± 1.7% | 28 ± 5.5% | 60.3 ± 1.3%
43 | UAAUAUUACAUGUAAACCAAA | 82.6 ± 9.2% | 96.8 ± 3.5% | 79.3 ± 9.3% | 106 ± 11%
44 | UGGCCUUACAUGUAAACCAAA | 25 ± 1.3% | 19.2 ± 3.2% | 55.5 ± 5.6% | 70.7 ± 12%

From the supplement of paper PMC6206098
